# Out of some 360,000 compounds screened, about 16,000 (4.4%) were called active. The shares of active, inactive and inconclusive entries below differ from those in the screen. Calls come from the whole dose curve; as a rule, active = well fitted inhibition curve with a large enough effect; inconclusive = small, poorly fitted or top-dose-only effect; inactive = no such curve, though single readings can be large or run the other way. Potencies beside an inconclusive call are fits to weak or partial responses and may not hold up.
# Target: Bromodomain adjacent to zinc finger domain protein 2B (Homo sapiens) (UniProt Q9UIF8)
# Assay: qHTS Assay for Inhibitors of BAZ2B; note: nearly all actives have a fitted effect of over 60% in size
# Conditions: AlphaScreen BAZ2B-H3K14Ac peptide displacement; series mostly up to 114 µM
# Method in brief: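 Complex of BAZ2B and biotin-H3K14Ac (50 nM apiece) forms over 30 min at RT, then faces library compounds up to 110 uM for another 30 min; AlphaScreen beads added, 20 min dark incubation, luminescence read.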
# Potency is the fitted concentration of half-maximal effect; tags give direction and shape of the fitted curve.
# UniProt Q9UIF8, sequence (Q9UIF8 whole entry, looked up, the tested form may be a part): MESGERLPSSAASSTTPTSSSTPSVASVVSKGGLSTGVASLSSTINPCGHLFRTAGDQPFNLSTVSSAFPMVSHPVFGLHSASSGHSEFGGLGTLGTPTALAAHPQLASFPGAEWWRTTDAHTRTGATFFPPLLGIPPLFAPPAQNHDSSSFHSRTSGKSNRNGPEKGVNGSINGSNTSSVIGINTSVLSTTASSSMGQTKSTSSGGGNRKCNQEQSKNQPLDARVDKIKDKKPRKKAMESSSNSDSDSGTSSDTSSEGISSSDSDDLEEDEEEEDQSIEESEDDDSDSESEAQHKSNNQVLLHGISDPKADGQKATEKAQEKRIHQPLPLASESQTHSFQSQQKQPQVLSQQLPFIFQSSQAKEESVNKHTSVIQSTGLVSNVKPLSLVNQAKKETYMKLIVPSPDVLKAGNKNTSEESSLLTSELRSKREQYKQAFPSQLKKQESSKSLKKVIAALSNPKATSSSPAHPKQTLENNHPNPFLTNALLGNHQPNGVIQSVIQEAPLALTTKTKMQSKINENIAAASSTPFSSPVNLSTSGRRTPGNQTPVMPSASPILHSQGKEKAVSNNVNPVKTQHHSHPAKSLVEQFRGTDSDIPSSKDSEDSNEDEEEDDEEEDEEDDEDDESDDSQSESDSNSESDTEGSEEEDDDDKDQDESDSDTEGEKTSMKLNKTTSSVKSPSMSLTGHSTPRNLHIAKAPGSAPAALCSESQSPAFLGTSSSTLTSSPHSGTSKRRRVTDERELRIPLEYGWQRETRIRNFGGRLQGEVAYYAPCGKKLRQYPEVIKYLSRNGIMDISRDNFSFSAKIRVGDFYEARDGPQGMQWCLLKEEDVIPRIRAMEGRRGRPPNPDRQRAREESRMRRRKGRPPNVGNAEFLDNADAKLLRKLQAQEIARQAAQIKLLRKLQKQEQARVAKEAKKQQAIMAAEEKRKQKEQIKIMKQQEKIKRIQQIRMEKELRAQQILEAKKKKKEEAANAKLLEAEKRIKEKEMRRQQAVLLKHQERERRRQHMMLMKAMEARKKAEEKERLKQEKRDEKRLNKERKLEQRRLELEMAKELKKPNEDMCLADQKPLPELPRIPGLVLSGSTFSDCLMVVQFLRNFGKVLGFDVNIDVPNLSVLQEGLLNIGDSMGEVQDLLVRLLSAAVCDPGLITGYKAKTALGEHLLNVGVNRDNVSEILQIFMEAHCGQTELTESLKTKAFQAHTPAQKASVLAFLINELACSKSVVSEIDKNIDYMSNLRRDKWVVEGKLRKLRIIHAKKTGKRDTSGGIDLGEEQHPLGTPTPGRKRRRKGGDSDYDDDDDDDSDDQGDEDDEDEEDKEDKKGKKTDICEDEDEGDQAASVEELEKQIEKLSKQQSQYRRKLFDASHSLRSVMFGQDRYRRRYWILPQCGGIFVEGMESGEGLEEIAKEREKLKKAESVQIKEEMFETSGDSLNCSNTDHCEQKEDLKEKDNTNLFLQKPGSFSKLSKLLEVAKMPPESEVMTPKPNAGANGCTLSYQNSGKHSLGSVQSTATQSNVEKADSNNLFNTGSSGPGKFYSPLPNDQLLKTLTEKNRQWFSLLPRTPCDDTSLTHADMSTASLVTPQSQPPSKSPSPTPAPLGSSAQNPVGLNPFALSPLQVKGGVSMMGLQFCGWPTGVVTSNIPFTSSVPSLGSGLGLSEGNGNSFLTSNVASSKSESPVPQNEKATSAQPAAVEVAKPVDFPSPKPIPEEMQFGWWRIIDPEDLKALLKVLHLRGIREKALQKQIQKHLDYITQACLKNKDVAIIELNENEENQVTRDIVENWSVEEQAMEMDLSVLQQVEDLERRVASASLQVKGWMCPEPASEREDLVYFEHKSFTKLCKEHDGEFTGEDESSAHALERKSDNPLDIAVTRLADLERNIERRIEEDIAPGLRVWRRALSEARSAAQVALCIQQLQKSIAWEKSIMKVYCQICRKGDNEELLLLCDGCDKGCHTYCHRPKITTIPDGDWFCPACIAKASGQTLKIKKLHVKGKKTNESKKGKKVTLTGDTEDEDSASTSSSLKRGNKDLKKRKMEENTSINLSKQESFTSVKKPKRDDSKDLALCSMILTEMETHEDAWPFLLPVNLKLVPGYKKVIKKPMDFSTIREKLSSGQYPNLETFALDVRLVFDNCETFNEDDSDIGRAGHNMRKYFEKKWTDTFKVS
row,Structure (SMILES),Potency
1,O=C1CC(c2ccccc2)CC(O)=C1C=Nc1ccccc1O (stereo unspecified),inactive
2,Cc1c(N=NC2=C(O)CCCC2=O)c(=O)n(-c2ccccc2)n1C,active: 22.4 µM
3,COc1ccc2[nH]c(C)c(CCN3C(=O)C4CC=CCC4C3=O)c2c1 (stereo unspecified),"inconclusive: 79.4 µM [inhibitor, single point]"
4,O=C(O)c1cc(Cl)c2c(c1)[C@@H]1C=CC[C@@H]1[C@H](c1ccc(S(=O)(=O)N3CCOCC3)cc1)N2,active: 50.1 µM
5,COc1ccc(CN2CCN(C(=O)c3c(-c4ccccc4)noc3C)CC2)cc1F,inactive
6,CC(=O)c1sc(N/N=C2\CC3CC2C(C)C3(C)C)nc1C (stereo unspecified),"inconclusive: 28.2 µM [inhibitor, partial curve]"
7,COc1cc(C(=O)NCCc2c[nH]c3ccccc23)ccc1OCc1c(C)noc1C,"inconclusive: 31.6 µM [inhibitor, full curve]"
8,Cc1cc(Cl)c(S(=O)(=O)N2CCN(c3ccc(F)cc3)CC2)cc1OCC(=O)NC1CCCCC1,"inconclusive: 7.08 µM [inhibitor, full curve]"
9,CC(=O)C1=C(O)C(=O)N(c2cccc(C(=O)O)c2)C1c1ccc(F)cc1 (stereo unspecified),"inconclusive: 79.4 µM [inhibitor, partial curve]"
10,S=C(NC1CCCCC1)NN(c1ccccc1)c1ccccc1,"inconclusive: 70.8 µM [inhibitor, single point]"
11,O=C(CC1C(=O)N(c2ccc(F)cc2)C(=O)N1Cc1ccc2c(c1)OCO2)Nc1ccc(F)cc1 (stereo unspecified),inactive
12,COc1ccc(C(=O)N/N=C\c2coc3ccc(Cl)cc3c2=O)cc1,"inconclusive: 89.1 µM [inhibitor, partial curve]"
13,O=C(Nc1ccc2c(c1)OCO2)c1cc(Cl)ccn1,"inconclusive: 89.1 µM [inhibitor, single point]"
14,Cc1c(C(=O)O)cccc1-n1c(C)cc(/C=C(/C#N)C(=O)NCc2ccccc2)c1C,active: 56.2 µM
15,CSCC[C@H](NC(=O)N1CCn2c1nc1ccccc12)C(=O)NCc1ccco1,"inconclusive: 79.4 µM [inhibitor, single point]"
16,CCCNC(=S)N1CCN(CC)CC1,active: 50.1 µM
17,Cc1ccc2c(c1)N(CC(=O)N1CCCCCC1)C(=O)c1cccnc1O2,"inconclusive: 39.8 µM [inhibitor, partial curve, poor fit]"
18,O=C(CNC(=O)c1ccccc1O)N/N=C/c1ccccn1,inactive
19,CC(=O)N1CCCc2cc(S(=O)(=O)NCc3ccc(N(C)C)cc3)ccc21,inactive
20,CN=c1scc(-c2cccs2)n1/N=C/c1ccccc1O,"inconclusive: 79.4 µM [inhibitor, single point]"
21,COc1ccc(Cn2c(C(=O)O)c(CNC3CCC(C)CC3)c3ccc(C)cc32)cc1 (stereo unspecified),"inconclusive: 89.1 µM [inhibitor, single point]"
22,CC1CCC(C(C)C)C2=C1C(C#N)(C#N)C(C#N)(C#N)C(c1ccccc1)N2 (stereo unspecified),"inconclusive: 44.7 µM [inhibitor, partial curve]"
23,COc1cc(/C=N/N=C(/C(=O)c2ccccc2)c2ccccc2)cc(OC)c1O,"inconclusive: 50.1 µM [inhibitor, partial curve]"

row,Structure (SMILES),Potency
1,COc1cc(NC(=O)CN(C)Cc2cccc(F)c2)c(C)cc1[N+](=O)[O-],inactive
2,CC(=O)Nc1sc(N/N=C/c2ccc(N(C)C)cc2)nc1-c1ccc(C)cc1,active: 28.2 µM
3,NNC(=O)c1cc(Br)cs1,inactive
4,CC1=NN(c2ccccc2)C(=O)/C1=C/c1ccc[nH]1,active: 11.2 µM
5,CCOC(=O)N1CCC(n2c(SCC(=O)NCc3ccccc3)nc3ccccc3c2=O)CC1,"inconclusive: 89.1 µM [inhibitor, single point]"
6,Cc1ccc(N=C2SC(C(=O)Nc3ccc(OC(F)(F)F)cc3)C(N)=C2C(=O)Nc2c(C)cc(C)cc2C)cc1 (stereo unspecified),inactive
7,O=C(O)CCCC(=O)Nc1ccc(N=Nc2ccccc2)cc1,inactive
8,Cc1ccc(C(=O)O)cc1NC(=S)NC(=O)c1ccc([N+](=O)[O-])c(C)c1,"inconclusive: 79.4 µM [inhibitor, single point]"
9,O=C(CN(c1ccccn1)S(=O)(=O)c1ccccc1)N/N=C/c1cccc([N+](=O)[O-])c1,"inconclusive: 89.1 µM [inhibitor, single point]"
10,CCOc1cc([N+](=O)[O-])cc(/C=N/NC(=O)c2c(-c3ccccc3)noc2C)c1O,active: 22.4 µM
11,Cc1cccc(Nc2ncnc3c2cnn3C)c1C,inactive
12,CN(C)S(=O)(=O)c1ccc(NC(=O)CN2CCCc3ccccc32)cc1,"inconclusive: 28.2 µM [inhibitor, full curve]"
13,COc1ccc(C(=O)c2nc3c(n2O)CCCCC3)cc1,inactive
14,Cc1ccc(C)c(N2CCN(C(=O)c3cc(S(=O)(=O)N4CCCC4)c[nH]3)CC2)c1,"inconclusive: 35.5 µM [inhibitor, full curve, poor fit]"
15,COC(=O)c1ccccc1NC(=S)N(Cc1ccc2c(c1)OCO2)Cc1cc2ccc(OC)cc2[nH]c1=O,"inconclusive: 79.4 µM [inhibitor, single point]"
16,CCCC(C)C(=O)Nc1ccc(S(=O)(=O)Nc2nccs2)cc1 (stereo unspecified),active: 50.1 µM
17,Cc1cccc(C)c1NC(=O)CSCC(=O)c1ccc(O)c(O)c1,"inconclusive: 89.1 µM [inhibitor, single point]"
18,COC(=O)Cn1c2[n+](c3ccccc31)CC(O)CS2 (stereo unspecified),inactive
19,O=C(C1CC(=O)N(c2ccc3c(c2)OCCO3)C1)N1CCN(Cc2ccccc2F)CC1 (stereo unspecified),inactive
20,O=C(NCCN1CCc2ccccc2C1)C1CCN(S(=O)(=O)N2CCCCC2)CC1,"inconclusive: 89.1 µM [inhibitor, single point]"
21,CCc1ccccc1NC(=O)CSc1nc2c(oc3ccccc32)c(=O)n1-c1ccccc1,inactive
22,C=C(C)COc1ccc(-c2n[nH]c(C)c2-c2ccc(OC)cc2)c(O)c1,"inconclusive: 25.1 µM [inhibitor, single point]"
23,COCC(=O)Nc1nc2n(n1)C(c1ccccc1Cl)CC(c1ccc(OC)cc1)N2 (stereo unspecified),"inconclusive: 89.1 µM [inhibitor, single point]"

# Source: PubChem BioAssay AID504333 (National Center for Advancing Translational Sciences (NCATS), 2011)
